T1: UNK ZnF1-6 (called full-length) (human, UniProt Q9C0B0 30-357)
T1 sequence: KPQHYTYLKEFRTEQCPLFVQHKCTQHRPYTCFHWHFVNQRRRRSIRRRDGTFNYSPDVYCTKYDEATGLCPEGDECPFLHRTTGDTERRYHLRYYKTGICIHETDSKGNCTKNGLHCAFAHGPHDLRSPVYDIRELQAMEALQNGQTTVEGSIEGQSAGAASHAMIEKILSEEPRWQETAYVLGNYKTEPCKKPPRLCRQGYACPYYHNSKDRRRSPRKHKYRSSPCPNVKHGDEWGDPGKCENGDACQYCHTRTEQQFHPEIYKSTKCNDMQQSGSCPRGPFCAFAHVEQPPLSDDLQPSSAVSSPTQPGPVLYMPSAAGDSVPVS

B1: chr5:96781692:96781854:-|CDS|ENSG00000164307|control|control|control (ssRNA)
RNA: GGGAGUUCUACAGUCCGACGAUCGUGACCUUGGCAGUGUUUGCUGUGGGGGCCCAGAGCACAGAAGGCUGGGAUUUUCUUUAUAGUAAAUAUCAGUUUUCUUUGUCCAGUACUGAGAAAAGCCAAAUUGAAUUUGCCCUCUGCCAACAGAGGAUUGAGCAUCA
B2: chr2:32414998:32415099:+|CDS|ENSG00000115760|unk|FALSE|unique (ssRNA)
RNA: GGGAGUUCUACAGUCCGACGAUCCCAUGUUUAUUAGCUGGAGGUUUAUUAACAUAUAAAUCUCCUGCUACCUCACCCAUUAGUAGUAAUUCUCACAGGUCACUGGAUGGUUUAAGCAGAACUCAGGGUGAAAGUAUAUCAGAACAACAGAGGAUUGAGCAUCA
B3: chr14:50159683:50159784:-|CDS|ENSG00000100485|unk|total|mutant (ssRNA)
RNA: GGGAGUUCUACAGUCCGACGAUCGAGGAAAAUACAAAUUUGUGAUAAAGAAGAUACUUGUGAGCACAAGCAUGCAUUUGAAUCCGUAUCCAAAGAUGAGAACAGCAUAAUAUUUGCUGCUAAGUCUGCUGAAGAAAAAAACAACAACAGAGGAUUGAGCAUCA
B4: chr5:179730620:179730726:+|3pUTR|ENSG00000127022|msi1_unk|FALSE|overlapping (ssRNA)
RNA: GGGAGUUCUACAGUCCGACGAUCGAGCUUUAAAUCAUUAGAGCUUAAAUUGUCAGAUCGUUCAUUGCCUUUCCAGGGUUAUUUAGUAAAGUUUGUUGAAAACAAAAACGCCUUUUCUUGGUUCUUUUUUCAGUUAUUUUGAAGCAACAGAGGAUUGAGCAUCA
B5: ENSG00000197006:stop:overlap|stop_codon|ENSG00000197006|stop_codon|NA|stop_codon (ssRNA)
RNA: GGGAGUUCUACAGUCCGACGAUCUUGCCCUUGUCCUCCCCUUUCAUCCCUAUGUGGAAAACGGUAAGUGUGGUCAGUCAGGCUAGCUCUUACUGAGGAUAGCUGUUUAUUGGUAUUUGUGAUUUUGUGCUGUGUACAAUUAAACAACAGAGGAUUGAGCAUCA
B6: chr7:74195289:74195308:+|CDS_3pUTR|ENSG00000106682|msi1_unk|total|mutant (ssRNA)
RNA: GGGAGUUCUACAGUCCGACGAUCGCGACGCCCCUCAAUCAAGCCGCCAAUCCCAACUCUGCUAUCUUCGGGGGUGCCAGGCCCCGAGAGGAAGUCGUUCAAAAGGAGCAAGAAUGAGCCUGCGGUUGGGAGGGAAUGGGGCGUCAACAGAGGAUUGAGCAUCA
B7: ENSG00000136010:stop:overlap|stop_codon|ENSG00000136010|stop_codon|NA|stop_codon (ssRNA)
RNA: GGGAGUUCUACAGUCCGACGAUCACUUAGGUGAGGAAGCUCUAAAUGAAUAUCUCAAAACCAAGACGGUGACACUGGAAUAUUAGAGCAACACCAUCAUCAGGAAAGCCUUGACAGACAGCCCUUUACAACUCUGGACACACUCAACAGAGGAUUGAGCAUCA
B8: chr9:91409354:91409467:-|CDS|ENSG00000165030|unk|FALSE|unique (ssRNA)
RNA: GGGAGUUCUACAGUCCGACGAUCAAUGAAAGACAGUGGCUACAAAGUUUCUGACCCAGAGAACUUGUAUUUGAAGCAGGGGAUAGCAAACUUAUCUGCAGAGGUUGUCUCACUCAAGAGACUUAUAGCCACACAACCAAUCUCCAACAGAGGAUUGAGCAUCA
B9: chr2:10440579:10440691:-|3pUTR|ENSG00000115758|unk|total|mutant (ssRNA)
RNA: GGGAGUUCUACAGUCCGACGAUCUAACUGCAAGUUCCGCUUGAAUUAAGGGAUUUGGGGGGACCAUGUAACUUAAUUACUGCCCGUUUUGAAAUGUCUUUGUAAGAGCCGGGUCGCCAUGAUGCAGCCAUAUGGAAGACCCGGCAACAGAGGAUUGAGCAUCA
B10: chr12:118033712:118033825:-|3pUTR|ENSG00000176871|unk|FALSE|unique (ssRNA)
RNA: GGGAGUUCUACAGUCCGACGAUCCCUCCGCUGGGAACGAUGGCUUCUGCCUAGUACCUAUCCUUGUGUUUCUGAUGCAGUGGUAGCAUUGGUUCAAGUUCUCUCCUGCUGUGGUCAGAGUUGCUUCGAUGUUGGCCAAGUGCUCAACAGAGGAUUGAGCAUCA
B11: chr7:2728618:2728646:-|3pUTR|ENSG00000146535|msi1_unk|FALSE|overlapping (ssRNA)
RNA: GGGAGUUCUACAGUCCGACGAUCUUUAAUUUCACUGUUAAUCCUUAUUGUCUUUUUUAUUAAGAUGUUGGAAAAGCAGGAGGUAGUUGUGCCUCAAUUAUUGCAAAAAUGUAACAAUAAAGUUCCUCAAAAUAAGAUCUGUUCCAACAGAGGAUUGAGCAUCA
B12: chr21:25881051:25881209:-|3pUTR|ENSG00000142192|msi1_unk|FALSE|overlapping (ssRNA)
RNA: GGGAGUUCUACAGUCCGACGAUCUUUUUUUUCCAUGACUGCAUUUUACUGUACAGAUUGCUGCUUCUGCUAUAUUUGUGAUAUAGGAAUUAAGAGGAUACACACGUUUGUUUCUUCGUGCCUGUUUUAUGUGCACACAUUAGGCAACAGAGGAUUGAGCAUCA
B13: chr1:94517210:94517403:+|3pUTR|ENSG00000117528|unk|total|mutant (ssRNA)
RNA: GGGAGUUCUACAGUCCGACGAUCAACAAAUUAACCCGAUACAGAAUAAUGGAGAACAAGUUGUUAAAACAUUUAAUAUUAUACCGGAUAUUGCUAAUUGUGUAUAUGUUGGUUUAAUUAAUAAUAUGUACUAAGAAUGUCCUUCAACAGAGGAUUGAGCAUCA
B14: chr19:51872534:51873706:-|CDS|ENSG00000161551|control|control|control (ssRNA)
RNA: GGGAGUUCUACAGUCCGACGAUCCCUAGUGGGCAGAAAUGUAGUGAUUGUGGAACAACCUUUUCCAAGAAAUCAAGCCUUUGUAGUUAAUCAGGAAUUUGAACAGAGAAUAAGCCUCACAAAUGAAGUGAAUGUGGCCCCAUCCAACAGAGGAUUGAGCAUCA

The list shows a part of the results.

The assay concerns the target T1, UNK ZnF1-6 (called full-length). Description: nsRBNS (natural sequence RNA bind-n-seq); RBNS binding buffer (assumed for nsRBNS): 25 mM Tris pH 7.5, 150 mM KCl, 3 mM MgCl2, 0.01% Triton X-100, 500 ug/ml BSA, 20 U/ml SUPERase-In, 4 C; UNK is unkempt and MSI1 is Musashi-1; names of the RNAs are library labels; protein concentration not given here; high values mean tight binding.
B1 registered a binding signal of 0.885 enrichment R.

As to B2, the binding signal is 0.56 enrichment R. B3 registered a binding signal of 0.305 enrichment R. In the case of B4 it was 0.715 enrichment R. In the case of B5, the binding signal is 0.997 enrichment R. Then B6, with 0.648 enrichment R. Then B7, with 0.469 enrichment R. Then B8, with 0.819 enrichment R; and B9, with 0.577 enrichment R. B10 returned a binding signal of 0.472 enrichment R. In the case of B11 it was 0.624 enrichment R; in that of B12, 1.05 enrichment R. In the case of B13 it was 0.447 enrichment R; in that of B14, 0.639 enrichment R.

Source of the values: article PMC12136788.
